In all, about 420,000 compounds went through this assay and about 64,000 (15%) were called active. The shares of active, inactive and inconclusive entries below differ from those in the screen. The call rests on the fitted dose curve; in most records, active means well fitted inhibition curve with a large enough effect; inconclusive means small, poorly fitted or top-dose-only effect; inactive means flat fitted curve, though single readings scatter. No potency is given beside an inconclusive call; the fits are too rough.
Assay: qHTS for Inhibitors of human tyrosyl-DNA phosphodiesterase 1 (TDP1): qHTS in cells in absence of CPT; further: nearly all actives have a fitted effect of over 55% in size
Conditions: DT40 Tdp1-/- hTDP1 cells, no CPT, ATP luminescence, 48 h; activity change, negative = growth inhibition: at 46.2 µM (top of the series) unless noted
Outline: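 Cells were dispensed at 400 per well, compounds added by pin tool, plates incubated ≥48 hr at 37 °C, then CellTiter-Glo added for 30 min at room temperature before luminescence reading. Line: DT40 Tdp1-/- complemented with hTDP1; camptothecin omitted.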
For `Cc1ccc(S(=O)(=O)N(C)C)cc1NC(=S)Nc1cccc2ccccc12`, the Potency was inconclusive [inhibitor, single point].
With `CC1CCCN(CC(=O)Nc2ccc(S(=O)(=O)N3C(C)CCCC3C)cc2)C1` (centres undefined) the Potency was active: 16.4 µM.
In the case of `Nc1cccc(N2C(=O)c3cccc4c(N)ccc(c34)C2=O)c1`, the Potency was inconclusive [inhibitor, single point].
In the case of `CSc1nc(/C=C2\C=Nc3ccccc32)c(O)n1C`, the activity change, negative = growth inhibition was inconclusive: -29.2% [inhibitor].
For `COc1ccc(CCNS(=O)(=O)c2ccc3c(c2)CC(C)N3C(=O)C2CC2)cc1OC` (centres undefined), the Potency was inconclusive [inhibitor, single point].
With `CCOC(=O)c1ccc(CC(=O)c2ccc(O)c(O)c2O)o1` the Potency was inconclusive [inhibitor, single point].
With `CC(C)Oc1ccc(C(=O)Nc2nnc(C3=COCCO3)o2)cc1` the Potency was inconclusive [inhibitor, single point].
For `NC(=O)c1nsc(C(=O)N(c2cccc(F)c2)C(C(=O)NC2CCCC2)c2ccco2)c1N` (centres undefined), the Potency was inconclusive [inhibitor, partial curve].
For `COc1cccc(Cn2nc(C(=O)O)c3ccccc3c2=O)c1`, the Potency was inconclusive [inhibitor, single point].
In the case of `CCn1c(C)cc(C(=O)CSc2nnc(-c3ccco3)o2)c1C`, the Potency was “inactive”.
For `CSCC[C@H](NC(=O)C1=NN(c2c(F)c(F)cc(F)c2F)C(=O)CC1)c1nc2ccccc2[nH]1`, the Potency was “inactive”.
For `Cc1ccc(S(=O)(=O)CCC(=O)OCC(=O)Nc2cc(C)on2)cc1`, the Potency was inconclusive [inhibitor, single point].
For `COc1ccc(Nc2cc(C(=O)NCc3cccs3)c3ccccc3n2)cc1`, the Potency was “inactive”.
With `COc1ccc(OCC(=O)Nc2ccccc2N2CCCCC2)cc1` the Potency was active: 1.64 µM.
With `Cn1c(SCC(=O)Nc2ccc3c(c2)OCO3)nnc1-c1cnccn1` the Potency was “inactive”.
In the case of `CCOc1ccc(S(=O)(=O)N2CCN(C(=O)CN3C(=O)NC(C)(C)C3=O)CC2)cc1`, the Potency was “inactive”.
For `Cc1ccccc1Cc1c(C)nc2c(C(=O)N3CCN(Cc4ccc5c(c4)OCO5)CC3)cnn2c1C`, the Potency was active: 18.4 µM.
In the case of `O=C(OCC(=O)N1CCN(C(=O)COC(=O)c2ccc(O)cc2O)CC1)c1ccc(O)cc1O`, the Potency was inconclusive [inhibitor, single point].
In the case of `COc1cccc(CNC(=O)c2ccc3c(c2)N(C)CCS3)c1OC`, the Potency was inconclusive [inhibitor, single point].
For `COc1ccc(CNC(=O)CN=C2NC(=O)C(c3ccccc3)(c3ccccc3)N2)cc1`, the Potency was inconclusive [inhibitor, single point].
For `COc1ccc(CCNC(=O)CSc2cn(CCNC(=O)c3ccccc3F)c3ccccc23)cc1OC`, the Potency was inconclusive [inhibitor, single point].
For `COc1ccc(CCNC(=O)Cn2nnc(-c3ccc(OC)c(OC)c3)n2)cc1OC`, the Potency was inconclusive [inhibitor, single point].
In the case of `CN1CCN(C(=O)C(=O)Nc2c3c(nn2-c2cccc(Cl)c2)CSC3)CC1`, the Potency was “inactive”.
In the case of `Cn1c(CSCc2ccc(F)cc2)nnc1SCC(=O)N1CCN(c2ccccc2)CC1`, the Potency was inconclusive [inhibitor, partial curve].
For `C/C(=N\NC(=O)C1(C)CC1(Br)Br)c1ccc([N+](=O)[O-])cc1` (centres undefined), the Potency was inconclusive [inhibitor, single point].
In the case of `COc1ccc(S(=O)(=O)/N=C2/NC(=O)/C(=C\c3ccco3)S2)cc1`, the Potency was inconclusive [inhibitor, single point].
In the case of `CCN1CCN(S(=O)(=O)c2ccc(Cl)c(C(=O)N(C)CCOc3ccc(Cl)cc3)c2)CC1`, the Potency was active: 14.6 µM.
In the case of `O=C(CSc1ncc(-c2ccccc2)[nH]1)Nc1ccc(F)cc1F`, the Potency was inconclusive [inhibitor, single point].
With `S=C(c1ccco1)N1CCOCC1` the activity change, negative = growth inhibition was inconclusive: -32.8% [inhibitor].
In the case of `CCCc1nc2c(ccc3ccccc32)cc1CC`, the Potency was inconclusive [inhibitor, single point].
With `Cc1ccc(C=Cc2ccccn2)cc1` the Potency was inconclusive [inhibitor, single point].
In the case of `O=C(O)/C(=C\c1ccc(Cl)c([N+](=O)[O-])c1)c1ccc(S(=O)(=O)N2CCCC2)s1`, the Potency was “inactive”.
With `COc1ccc(Cn2cc(CN(C)C3CN(Cc4cn(Cc5ccc(OC)cc5)nn4)S(=O)(=O)C3)nn2)cc1` (centres undefined) the Potency was “inactive”.
For `Cc1c(C(=O)NCCCN2CCOCC2)sc2ncnc(N3CCN(c4ccccc4)CC3)c12`, the Potency was active: 20.6 µM.
For `CC(C)C[C@@H](CN1CCC[C@H]1CN1C(=O)C(=O)NC[C@@H]1Cc1ccc(O)cc1)N1C[C@H](Cc2ccc(O)cc2)N(CC2CCCCCC2)C(=O)C1=O`, the Potency was inconclusive [inhibitor, single point].
For `Cc1ccc(-c2nnn(CCC(=O)N3CCCCC3C)n2)cc1` (centres undefined), the Potency was inconclusive [inhibitor, partial curve].
With `CCOc1ccc(C2=C(C(=O)CC)Sc3nncn3N2C(=O)CC)cc1` the Potency was inconclusive [inhibitor, single point].
With `COc1ccc(/C(N)=N/OC(=O)N2CCOCC2)cc1` the Potency was active: 20.6 µM.
With `O=C(Cn1cnc2ccccc2c1=O)N1CCN(S(=O)(=O)c2ccc(F)cc2)CC1` the Potency was “inactive”.
In the case of `Cc1ccc(S(=O)(=O)N2CCCCC2CCNC(=O)C(=O)NCCc2ccco2)cc1` (centres undefined), the Potency was active: 4.11 µM.
In the case of `Cn1c(=O)n(C)c2cc(NC(=O)C(F)(F)F)ccc21`, the Potency was “inactive”.
With `CCc1ccccc1N1C(=O)N(CC(=O)c2ccc(Cl)cc2)c2ccccc2S1(=O)=O` the Potency was inconclusive [inhibitor, partial curve, poor fit].
For `Cc1ccc(Cn2c(=O)n(CCc3ccccc3)c(=O)c3c(C)c(C)sc32)cc1`, the Potency was inconclusive [inhibitor, partial curve].
With `CCCCCc1cccnc1` the Potency was “inactive”.
In the case of `CS(=O)(=O)c1ccc2nc(NC(=O)CN3CCC(Cc4ccccc4)CC3)sc2c1`, the Potency was inconclusive [inhibitor, partial curve, poor fit].
With `CCOC(=O)c1c(C)[nH]c(C(=O)COC(=O)[C@H](C)NC(=O)c2ccccc2Cl)c1C` the Potency was “inactive”.
In the case of `COC(=O)c1ccc(Cl)cc1N(Cc1c(F)cccc1Cl)S(C)(=O)=O`, the Potency was inconclusive [inhibitor, single point].
For `O=c1[nH]c2cccc(Cl)c2n(CCNc2ncc(C(F)(F)F)cc2Cl)c1=O`, the Potency was inconclusive [inhibitor, single point].
With `CC1=C(C(=O)N2CCCCCC2)CC(CC(=O)NCCc2ccccn2)C(=O)N1Cc1ccc(F)cc1` (centres undefined) the Potency was inconclusive [inhibitor, partial curve, poor fit].
For `O=C(c1sc2cc(F)ccc2c1Cl)N1CCN(c2cccc(Cl)c2)CC1`, the Potency was inconclusive [inhibitor, single point].
With `CCCN1CCN(C(=O)c2cc(COc3ccc4ncccc4c3)on2)CC1` the Potency was active: 9.2 µM.
For `CC(C)N(c1ccccc1)c1ccc(NC(=O)C2CCCO2)cc1` (centres undefined), the Potency was active: 16.4 µM.
For `Cc1ccc(S(=O)(=O)N2CCN(C(=S)NCc3ccc4c(c3)OCO4)CC2)cc1`, the Potency was inconclusive [inhibitor, single point].
With `Cc1cc(N)ccc1NC(=O)CN1CCOCC1` the Potency was “inactive”.
In the case of `Cn1c(=O)c2cc(S(=O)(=O)N3CCC(c4ccccc4)CC3)ccc2n(C)c1=O`, the Potency was inconclusive [inhibitor, single point].
For `Cc1sc2nc(C(C)C)nc(SCC(=O)N3CCOCC3)c2c1C`, the Potency was inconclusive [inhibitor, single point].
For `COc1cc(/C=C/C(=O)O)cc(S(=O)(=O)Nc2ccc(S(=O)(=O)N3CCCCC3)cc2)c1OC`, the Potency was “inactive”.
In the case of `Cc1cc(C)c2[nH]c(C(=O)Nc3ccc4c(c3)OCO4)cc2c1`, the Potency was inconclusive [inhibitor, single point].
In the case of `CCOCCCNC(=O)c1ccc2c(=O)n(Cc3ccc(OC)cc3)c(=O)[nH]c2c1`, the Potency was inconclusive [inhibitor, single point].
In the case of `Cc1ccc(C2Nc3ccccc3C(=O)N2CCCN2CCOCC2)cc1` (centres undefined), the Potency was “inactive”.
In the case of `COc1ccc(NC(=O)Cn2c(=O)n(-c3ccc(CC(=O)NCc4ccco4)cc3)c(=O)c3ccccc32)cc1`, the Potency was “inactive”.
In the case of `CCOC(=O)c1cc(S(=O)(=O)N2CCN(c3cccc(OC)c3)CC2)[nH]n1`, the Potency was inconclusive [inhibitor, single point].
In the case of `CC(=O)N(c1ccc2ccccc2c1)C1SC(=O)N(c2cccc(C)c2)C1=O` (centres undefined), the Potency was “inactive”.
With `COc1ccc(C(=O)Nc2cc(C(F)(F)F)ccc2Cl)cc1OC` the Potency was “inactive”.
In the case of `Cc1nn(-c2ccccc2)c(C)c1/C=N/NC(=O)CSc1nc2ccccc2c(=O)n1-c1ccc(Br)cc1`, the Potency was inconclusive [inhibitor, single point].
With `COCCNc1ncnc2c1cnn2Cc1ccc(Cl)cc1` the Potency was inconclusive [inhibitor, single point].
For `COc1cc(C)ccc1S(=O)(=O)NC(=O)C1(C)CCN1C(=O)c1ccc(C2CCCCC2)cc1` (centres undefined), the Potency was “inactive”.
For `CCOC(=O)c1c(O)cc(C)cc1Nc1ccccc1`, the Potency was “inactive”.
In the case of `O=C(NCc1ccc(Cl)cc1)c1ccc2oc(=O)n(Cc3ccccc3)c2c1`, the Potency was inconclusive [inhibitor, single point].
On the % scale 0 is the no-effect control and ±100 the full control effect; potency means the concentration at half of the fitted maximal effect; tags describe the fitted curve by direction and shape.
